Reference: PubChem BioAssay AID1030 (National Center for Advancing Translational Sciences (NCATS), 2008)
The campaign covered roughly 220,000 compounds. About 16,000 (7.3%) were called active. Inconclusive results, whose numbers are uncertain, are shown with a selection of clear calls. Calls come from the whole dose curve; as a rule, active = well fitted inhibition curve with a large enough effect (not every such curve was filed as active); inconclusive = small, poorly fitted or top-dose-only effect, or another doubt; inactive = no such curve, though single readings can be large or run the other way. Potencies of inconclusive entries are left out as doubtful fits.
Potency is the fitted concentration of half-maximal effect; tags give direction and shape of the fitted curve.
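Throughout, for activity, negative = inhibition: plate controls were no enzyme wells and a reference inhibitor.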

Each compound was assayed against Aldehyde dehydrogenase 1A1 (Homo sapiens) (UniProt P00352) (assay: qHTS Assay for Inhibitors of Aldehyde Dehydrogenase 1 (ALDH1A1)). Settings: Purified ALDH1A1, NADH fluorescence, propionaldehyde substrate; series mostly up to 75.3 µM; activity, negative = inhibition: at the top concentration.
Chain of UniProt P00352 (P00352 whole entry, looked up): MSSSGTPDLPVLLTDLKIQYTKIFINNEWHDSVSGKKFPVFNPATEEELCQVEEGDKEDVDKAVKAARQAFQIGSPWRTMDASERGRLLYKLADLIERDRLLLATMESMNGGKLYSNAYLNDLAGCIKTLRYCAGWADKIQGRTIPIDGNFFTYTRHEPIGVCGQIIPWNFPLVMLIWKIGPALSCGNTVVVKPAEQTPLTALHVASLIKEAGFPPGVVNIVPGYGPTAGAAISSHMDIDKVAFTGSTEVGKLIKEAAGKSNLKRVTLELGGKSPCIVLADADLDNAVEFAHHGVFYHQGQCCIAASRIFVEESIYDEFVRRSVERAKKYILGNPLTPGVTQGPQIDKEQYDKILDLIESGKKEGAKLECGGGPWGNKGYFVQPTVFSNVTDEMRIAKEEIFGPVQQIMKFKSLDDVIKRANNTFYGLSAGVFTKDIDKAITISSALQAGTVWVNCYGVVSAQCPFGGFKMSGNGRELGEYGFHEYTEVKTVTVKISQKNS
With Nc1c(C(=O)NCC2CCCO2)c2nc3ccccc3nc2n1-c1ccccc1 (configuration not stated) the Potency was inconclusive [inhibitor, partial curve]. Cc1nc(NCc2ccc3c(c2)OCO3)c2oc3ccccc3c2n1 was tested, and the Potency was inconclusive [inhibitor, single point]. In the case of O=C(CSc1nc(-c2ccccc2)cs1)N1CCN(C(=O)c2ccco2)CC1, the Potency is reported as inconclusive [inhibitor, single point]. In the case of O=C(NCCc1ccccc1)C1CCCN(S(=O)(=O)c2cccs2)C1 (configuration not stated), the “activity, negative = inhibition” value is reported as inactive: -12.8%. O=C(c1cccc(C(F)(F)F)c1)C1CCCN(Cc2cccn2-c2ccccn2)C1 (configuration not stated) was tested, and the “activity, negative = inhibition” value was inactive: 4.12%. COC(=O)c1ccc(OS(=O)(=O)c2ccc(NC(C)=O)cc2)cc1 was tested, and the Potency was inconclusive [inhibitor, partial curve]. With CCOC(=O)N1CCN(c2ccc(S(=O)(=O)N(Cc3ccccc3)Cc3ccccc3)cn2)CC1 the Potency was inconclusive [inhibitor, partial curve]. O=C(Nc1cccc(-c2cn3ccccc3n2)c1)c1cccc(Cl)c1 was tested, and the Potency was inconclusive [inhibitor, partial curve]. CC(=O)N1CCCN(Cc2cn(-c3ccc(C)cc3)nc2-c2ccc(F)cc2)CC1 was tested, and the Potency was inconclusive [inhibitor, single point]. For Cc1sc2nc(CN3CCOCC3)nc(N3CCOCC3)c2c1C, the Potency was active: 14.1 µM. In the case of COc1ccc(N2CCN(C(=O)c3cc(N4C(=O)C5C6CCC(C6)C5C4=O)ccc3Cl)CC2)cc1 (configuration not stated), the “activity, negative = inhibition” value is reported as inactive: -6.93%. In the case of Cc1ccsc1C(=O)OCC(=O)Nc1cccc(S(=O)(=O)NC2=NCCCCC2)c1, the Potency is reported as inconclusive [inhibitor, partial curve]. COc1ccc(C2CC(=O)C3=C(C2)Nc2ccccc2N(C(C)=O)C3c2ccco2)cc1 (configuration not stated) was tested, and the Potency was inconclusive [inhibitor, partial curve]. N#CCC(=O)Nc1ncc(Cc2ccccc2Cl)s1 was tested, and the Potency was inconclusive [inhibitor, full curve]. O=C(Nc1cccc(O)c1)c1ccccc1[N+](=O)[O-] was tested, and the “activity, negative = inhibition” value was inactive: -7.9%. With COc1ccc(Cl)cc1C(=O)NCc1cnn(C)c1C the “activity, negative = inhibition” value was inactive: -8.44%. For O=C(NCCc1ccccc1)C(c1cccs1)N(C(=O)CCl)c1ccc(Cl)cc1 (configuration not stated), the Potency was inconclusive [inhibitor, single point]. For COc1ccc(CCNCC(=O)Nc2ccccc2C(F)(F)F)cc1, the Potency was inconclusive [inhibitor, partial curve]. With CCC(=O)Nc1c(S(=O)(=O)c2ccccc2)c2nc3ccccc3nc2n1C(C)c1ccccc1 (configuration not stated) the Potency was inconclusive [inhibitor, single point]. For Cc1cccc(NC(=S)N/N=C/c2c[nH]c3ccccc23)c1, the “activity, negative = inhibition” value was inactive: 8.56%. For CCN(CC)CCN1c2ccccc2Sc2ccc3ccccc3c21, the Potency was “inactive”. For COCCn1c(Cc2ccccc2)nnc1SCC(=O)NC(C)C, the “activity, negative = inhibition” value was inactive: 3.96%. C=CCSc1nc2c(sc3nc(C)cc(C)c32)c(=O)[nH]1 was tested, and the “activity, negative = inhibition” value was inactive: 1.25%. CCn1c(/N=C/c2c[nH]c3ccccc23)nc2ccccc21 was tested, and the Potency was inconclusive [inhibitor, single point]. O=C(Nc1ccc(NC(=O)c2cccs2)cn1)c1ccccc1 was tested, and the Potency was inconclusive [inhibitor, partial curve]. With C/C(CCN1CCCc2nc(C)c(C)cc21)=N\O[C@@H](C)c1cc(-c2c(C)cc(C)cc2C)no1 the activity, negative = inhibition was inactive: 4.18% [at 13.5 µM]. Cc1cc(C(=O)COc2cccc3cccnc23)c(C)n1C was tested, and the Potency was inconclusive [inhibitor, full curve]. In the case of CCOc1ccc(NS(=O)(=O)c2ccc(OCC)c3ncccc23)cc1, the Potency is reported as inconclusive [inhibitor, partial curve]. For Cc1ccc(NC(=O)NC2=N/C(=C(/C#N)C(=O)N3CCCC3)c3ccccc32)cc1, the Potency was active: 0.631 µM. With Cc1ccccc1NC(=O)CN1C(=O)COc2ccc(Cl)cc21 the “activity, negative = inhibition” value was inactive: 1.78%. O=CN1CCN(S(=O)(=O)c2ccc(Cl)c(C(=O)O)c2)CC1 was tested, and the “activity, negative = inhibition” value was inactive: -6.25%. With CCN(CC)S(=O)(=O)c1cccc(-c2nnc(SCC(=O)c3cc(C)n(C)c3C)o2)c1 the Potency was inconclusive [inhibitor, single point]. In the case of CCCCCc1c(C)nc(NCc2ccccc2)[nH]c1=O, the “activity, negative = inhibition” value is reported as inactive: -3.48%. In the case of N=C(c1ccc([N+](=O)[O-])cc1)N1CCCCC1, the “activity, negative = inhibition” value is reported as inactive: 2.57%. For CCc1nnc(NC(=O)CSc2nnc(-c3ccoc3C)n2-c2cccc(C)c2)s1, the Potency was inconclusive [inhibitor, single point]. O=C1CCCC2=C1C(c1ccccc1)CC(=O)N2c1ccc(F)cc1F (configuration not stated) was tested, and the “activity, negative = inhibition” value was inactive: 12.7%. In the case of Cc1c(O)c(=O)ccn1C, the Potency is reported as “inactive”. With Cc1ccc(S(=O)(=O)N2CCOCC2)cc1NC(=O)CSc1cccc[n+]1[O-] the “activity, negative = inhibition” value was inactive: -5.93%. With COCCNC(=S)N1CCc2cc(OC)c(OC)cc2C1COc1ccc(C(C)C)cc1 (configuration not stated) the Potency was inconclusive [inhibitor, single point]. In the case of CC1=CC(C)(C)N(C(=O)CN2C(=O)c3ccccc3C2=O)c2ccccc21, the Potency is reported as inconclusive [inhibitor, single point]. COc1ccccc1NS(=O)(=O)c1cc(NC(=O)c2ccncc2)ccc1N1CCOCC1 was tested, and the Potency was inconclusive [inhibitor, single point]. For O=c1c2cc(N3CCOCC3)ccc2[nH]c(=S)n1CCCN1CCCC1, the Potency was inconclusive [inhibitor, single point]. In the case of O=C(CCNc1ccc(Br)cc1)c1cccc([N+](=O)[O-])c1, the Potency is reported as active: 0.631 µM. In the case of Cc1cccc(Nc2nnc(SCC(=O)Nc3ccccc3[N+](=O)[O-])s2)c1C, the Potency is reported as active: 1.26 µM. Cn1c(CCNC(=O)c2ccco2)nc2cc(NC(=O)NC3CCCCC3)ccc21 was tested, and the Potency was inconclusive [inhibitor, single point]. For O=C(NCc1ccco1)c1ccc(C(=O)NCc2ccco2)s1, the “activity, negative = inhibition” value was inactive: 2.06%. For COc1ccc2[nH]c(=O)c(CN(CC3CCCO3)C(=O)Nc3ccccc3)cc2c1 (configuration not stated), the Potency was inconclusive [inhibitor, partial curve].
